# According to article PMC4336329 (PLoS ONE, 2015):
# The whole screen tested about 310,000 compounds, of which about 2,200 (0.71%) showed an effect of 50% or more. The effect is printed as a negative number. Some of the results follow.
# Target: human ether-à-go-go-related gene (hERG) potassium channel (human, UniProt Q12809)
# Assay: primary screen, population patch clamp on CHO cells stably expressing hERG
# Chain of human ether-à-go-go-related gene (hERG) potassium channel (Q12809 whole entry, looked up): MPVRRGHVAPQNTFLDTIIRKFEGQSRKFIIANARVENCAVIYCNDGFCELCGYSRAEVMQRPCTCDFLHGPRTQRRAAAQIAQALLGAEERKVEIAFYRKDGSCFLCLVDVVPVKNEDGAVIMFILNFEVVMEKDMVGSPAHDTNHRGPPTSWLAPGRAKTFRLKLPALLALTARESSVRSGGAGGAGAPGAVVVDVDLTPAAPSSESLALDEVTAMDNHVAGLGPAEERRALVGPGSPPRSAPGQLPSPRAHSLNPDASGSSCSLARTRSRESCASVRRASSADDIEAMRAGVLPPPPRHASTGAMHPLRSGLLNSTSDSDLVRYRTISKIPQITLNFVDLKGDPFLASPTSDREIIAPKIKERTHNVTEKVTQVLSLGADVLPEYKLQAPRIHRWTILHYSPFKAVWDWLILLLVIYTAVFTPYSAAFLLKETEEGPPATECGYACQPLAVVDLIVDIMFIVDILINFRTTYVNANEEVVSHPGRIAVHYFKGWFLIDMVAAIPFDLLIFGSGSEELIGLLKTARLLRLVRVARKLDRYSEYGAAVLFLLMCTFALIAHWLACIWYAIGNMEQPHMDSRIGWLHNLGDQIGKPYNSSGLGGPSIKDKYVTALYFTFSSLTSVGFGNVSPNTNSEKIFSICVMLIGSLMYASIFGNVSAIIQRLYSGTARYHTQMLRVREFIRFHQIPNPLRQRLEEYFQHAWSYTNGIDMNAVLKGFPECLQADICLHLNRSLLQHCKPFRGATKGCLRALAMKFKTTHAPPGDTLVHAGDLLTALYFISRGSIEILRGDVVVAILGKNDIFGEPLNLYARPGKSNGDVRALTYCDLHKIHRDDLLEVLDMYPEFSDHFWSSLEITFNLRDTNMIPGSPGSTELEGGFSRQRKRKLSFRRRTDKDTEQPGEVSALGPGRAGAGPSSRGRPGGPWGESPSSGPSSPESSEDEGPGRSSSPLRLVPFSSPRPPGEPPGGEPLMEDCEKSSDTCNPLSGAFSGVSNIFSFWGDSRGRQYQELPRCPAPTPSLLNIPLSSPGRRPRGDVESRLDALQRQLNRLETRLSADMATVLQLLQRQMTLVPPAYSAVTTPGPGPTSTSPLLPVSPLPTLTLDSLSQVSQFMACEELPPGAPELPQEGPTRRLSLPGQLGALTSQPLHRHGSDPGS
row,Compound,"hERG current change (%, negative = inhibition) at 1uM"
1,CSc1nsc(SCC(=O)Nc2ccccc2F)n1,12.2%
2,O=C(NCc1ccccn1)c1ccc(Cl)c(S(=O)(=O)N2CCOCC2)c1,-5.84%
3,Cc1oc2c(c(C)cc3oc(=O)c(CC(=O)NCC(=O)NCC(=O)NCC(C)O)c(C)c32)c1C (stereo not drawn),12.6%
4,CS(=O)(=O)NCc1ccc(C(=O)NC2CCCCC2)cc1,14.8%
5,Cc1ccc(NC(=O)NC2CC(=O)N(c3ccc4c(c3)OCCO4)C2)c(C)c1 (stereo not drawn),12.5%
6,CCCC(=O)N1CCC(O)(c2cccc(F)c2)CC1,10.4%
7,c1ccc2c(NCCc3c[nH]c4ccccc34)c3ccccc3nc2c1,-48.8%
8,CC(=O)COC(=O)C1CC(=O)N(c2ccc(C)c(C)c2)C1 (stereo not drawn),0.273%
9,CCN(CC)CC(=O)Nc1c(C#N)cnn1-c1ccccc1,13.2%
10,CCN(CC)c1ccc(NC(=O)COC(=O)C23CCC(=O)N2c2ccccc2S3)cc1 (stereo not drawn),6.09%
11,O=C(O)CCn1[nH]c(=O)ccc1=O,13.6%
12,COc1cccc2c(=O)n(CC(=O)NC3CCCCC3)ccc12,12.3%
13,Cn1ncc2c(NNC(=O)Cc3cccc4ccccc34)ncnc21,6.41%
14,CCc1cc(Cn2nc(-c3ccccc3)cc2C(=O)NCCOC)on1,-2.49%
15,OCCNc1ncnc2c1c(-c1ccccc1)c(-c1ccccc1)n2Cc1ccco1,7.19%
16,O=C(NCc1ccccc1)C(Cc1ccccc1)NS(=O)(=O)c1cccc2nsnc12 (stereo not drawn),-1.02%
17,COc1ccc(Nc2nc(NCCO)nc(OC)n2)cc1,12.4%
18,O=C1CC(c2ccc(O)c(O)c2)Oc2c1ccc(O)c2O (stereo not drawn),-0.256%
19,O=C(NNS(=O)(=O)c1ccccc1)c1ccc(F)cc1,12.8%
20,O=[N+]([O-])c1cccc(-c2ccc(C(=S)N3CCN(c4ccc(F)cc4)CC3)o2)c1,18.3%
21,CCn1nc(C)c(NC(=O)/C=C/c2cnn(C)c2C)c1C,4.58%
22,Cc1cc(C(=O)NC(C)C2CCCO2)c(C)o1 (stereo not drawn),18.1%

row,Compound,"hERG current change (%, negative = inhibition) at 1uM"
1,CCOC(=O)Cn1cc(Cl)cc(C(=O)Nc2ccccc2)c1=O,-12.5%
2,CCOC(=O)C(C(=O)Nc1ccccc1C)C1CCCCC1 (stereo not drawn),17.9%
3,COc1ccc(C(=O)NCCS(=O)(=O)NCc2ccccc2)cc1,18.6%
4,Brc1ccc2c(c1)C(C1=NCCN1)c1ccccc1CS2.O=C(O)/C=C\C(=O)O (stereo not drawn),-6.4%
5,COc1ccccc1C#Cc1ccc2c(=O)c3ccccc3n(C)c2c1,8.94%
6,O=C(NCCOc1nc(N2CCCCC2)nc(N2CCCCC2)n1)Nc1ccccc1,19.7%
7,CC(C)(C)n1nnnc1CN1CCN(C(c2ccccc2)c2ccccc2)CC1,10.4%
8,CN1C(=O)CCC(CCC(=O)O)(c2ccccc2O)C1=O (stereo not drawn),15.9%
9,Cc1ccc(S(=O)(=O)N(C)CC(=O)Oc2ccc(-c3nnco3)cc2)cc1,19.2%
10,COc1ccc(S(=O)(=O)N2Cc3ccccc3CC2C(=O)O)cc1 (stereo not drawn),5.89%
11,CC(C)(C)c1ccc(C(=O)O)c(C(=O)c2ccccc2)c1,-6.15%
12,COc1cc(/C=N/N2C(=O)C3C4C=CC(CC4)C3C2=O)ccc1O (stereo not drawn),5.16%
13,CCOC(=O)c1c(-c2ccc(C)o2)csc1NC(=O)COC(=O)c1ccc(NC(N)=O)cc1,1.57%
14,O=C(NCCN1CCCCC1)c1ccc2c(c1)OCCO2,11.3%
15,O=C(O)c1ccc(COc2ccc(Cl)cc2)o1,13.1%
16,Cn1cnc([N+](=O)[O-])c1Sc1ncccc1N,5.62%
17,O=C1C2=C(CCCC2)C(=O)N1CNc1ccccc1,13.4%
18,Cc1ccccc1-c1nc(CS(=O)(=O)CC(=O)N2CCN(C)CC2)c(C)o1,8.35%
19,CCCn1c(SCC(=O)c2cc(C)n(-c3ccc4c(c3)OCO4)c2C)n[nH]c1=O,-0.109%
20,CCOC(=O)c1ccc(C(=O)NNC(=O)C2C3C=CC(C3)C2C(=O)O)cc1 (stereo not drawn),11.9%
21,O=C(NCCN1CCOCC1)c1cc(-c2cccs2)on1,-1.23%
22,COc1cc2ccc(=O)oc2cc1OCC(O)C(C)(C)O (stereo not drawn),3.03%

row,Compound,"hERG current change (%, negative = inhibition) at 1uM"
1,COc1ccc(C(=O)NC(=S)Nc2ccc(Cc3ccncc3)cc2)cc1,16.4%
2,CC(C)CCn1nc(C(=O)Nc2nc3c(s2)CCCC3)c2ccccc2c1=O,12%
3,c1csc(-c2nn3cnnc3c3ccccc23)c1,-6.16%
4,COc1ccc(OC)c([N+](=O)[O-])c1C(N)=O,13.4%
5,O=C(O)c1cc(-c2ccccc2)n(-c2ccccc2C(=O)O)n1,8.04%
6,CCOC(=O)N1CCN(C(=O)c2ccc3c(c2)N(Cc2ccccc2)CCS3)CC1,1.16%
7,COc1cc(NC(=O)Nc2ccc(C)cc2)cc([N+](=O)[O-])c1,10.9%
8,O=S(=O)(Nc1cc(Sc2cccc3cccnc23)c(O)c2ccccc12)c1ccc(F)cc1,13.4%
9,C=CCc1ccc(OCCCCCN2CCOCC2)c(OC)c1.O=C(O)C(=O)O,5.72%
10,COc1ccc(NC2(c3ccccc3)OC(=O)c3ccccc32)cc1 (stereo not drawn),10.3%
11,COc1ccc(OC)c(/C=N/NC(=O)c2cc(-c3ccc(C)o3)nc3ccccc23)c1,15.1%
12,O=C(c1ccc(Cn2c(=S)[nH]c3ccc(N4CCOCC4)cc3c2=O)cc1)N1CCC(N2CCCCC2)CC1,10.7%
13,Cc1ccc(C(=O)Nc2cccc(-c3cn4ccccc4n3)c2)cc1,5.57%
14,CC(C)c1ccc(S(=O)(=O)N2CCN(C(=O)c3cc(-c4ccccc4)n[nH]3)CC2)cc1,-3.64%
15,COc1cccc(NC(=O)N(CCCN2CCOCC2)C(C)c2cc3cccc(OC)c3o2)c1 (stereo not drawn),0.054%
16,COCCNC(=O)CN1C(=O)CN=C(c2ccccc2)c2ccccc21,-12.6%
17,CCCCCCCNC1=CC(=O)CC(c2ccco2)C1 (stereo not drawn),-77.6%
18,CCOC(=O)c1cc(C(=O)OCC)c2cccc(C)n2c1=O,4.74%
19,O=C(NCCC1=CCCCC1)C1CCN(C(=O)c2ccc(Br)cc2)CC1,1.8%
20,Nc1c(-c2ccccc2)c(CSc2nc3ccccc3[nH]2)nn1-c1ccc(C(=O)O)cc1,12.2%
21,Cc1c(OCC(=O)NCc2cccnc2)ccc2c3c(c(=O)oc12)CCC3,0.748%
22,Cc1ccccc1NC(=O)CSc1[nH]c(=O)cc(C)c1C#N,8.02%

row,Compound,"hERG current change (%, negative = inhibition) at 1uM"
1,COCCNC(=O)c1onc(CSc2ccccc2C)c1C(=O)O,9.95%
2,COc1ccc(C(=O)C2CCCN(Cc3c(O)cccc3OC)C2)cc1OC (stereo not drawn),-7.05%
3,O=C(Nc1cc(Sc2nc3ccccc3s2)cc([N+](=O)[O-])c1)c1ccccc1F,11.2%
4,O=C(COC(=O)c1ccc(Br)cc1)NC1CCCC1,3.56%
5,C#CCOCCOCCOCCNc1nc(N2CCOCC2)nc(N2CCN(C(=O)[C@H](Cc3cc4ccccc4[nH]3)n3cc([C@@H](N)C(C)CC)nn3)CC2)n1.Cl (stereo partly drawn),4.44%
6,CC1CCCC(NC(=O)c2ccc(CNc3c(N4CCCC4)c(=O)c3=O)cc2)C1C (stereo not drawn),13.8%
7,COc1ccccc1C(=O)NCCC(=O)NC1CCCC(C)C1C (stereo not drawn),-17.7%
8,O=C(O)CC/C(=N\NC(=O)CNC(=O)c1cccc(Cl)c1)c1ccccc1,4.05%
9,COC(=O)C1=C(C(=O)OC)[C@@H]2N(C)c3ccccc3[C@@]23C[C@@H](C(=O)OC)N(C(=O)c2ccc(Br)cc2)C3=N1,7.04%
10,CCN1CCN(Cc2cc(=O)oc3ccc(C)cc23)CC1,11.9%
11,CCC(=O)N1CCc2cc(S(=O)(=O)CCC(=O)NCc3ccccc3OC)ccc21,13.8%
12,COc1ccc(CC2(CO)CCN(C(C)Cc3ccc(Cl)cc3)CC2)cc1 (stereo not drawn),-80%
13,CC(NC(=O)c1ccco1)C(=O)N1CCN(c2cccc(Cl)c2)CC1 (stereo not drawn),23.6%
14,COc1ccc(CP(=O)(c2ccccc2)c2ccccc2)cc1,10.8%
15,CCn1cc(CN2CCC(C(=O)Nc3ccc(Oc4ccccc4F)cc3)CC2)c(C)n1,-26.7%
16,CCN(Cc1ccccc1)Cc1c(C)[nH]c2c(C)c(C)ccc2c1=O,-10.8%
17,CCC(=O)N1N=C2C3CCN(CC3)C2C1c1ccccc1 (stereo not drawn),-12.3%
18,O=C(CN1C(=O)C2C3CCC(C3)C2C1=O)NCc1ccco1 (stereo not drawn),15%
19,COc1cc(/C=C2\CCn3c2nc2cc(C(=O)O)ccc2c3=O)ccc1OC(F)F,14.5%
20,O=C(c1ccccc1)c1ccc2ccccc2n1,6.46%
21,O=C1C2N=NN(CC(=O)N3N=C(c4ccccc4)CC3c3ccc([N+](=O)[O-])cc3)C2C(=O)N1c1ccccc1 (stereo not drawn),8.18%
